Results from a collection of fitness landscapes (doi:10.1016/j.celrep.2020.107928).
The full ranking holds about 81,000 sequences; the median of “one-hybrid fitness for binding parS DNA” is about -0.17, and the highest 2% start at about 0.51. The list shows a part of the results.

B1: Caulobacter ParB omega fusion; a variant is named by its letters at X, in order, B8GW30 (parent)
chain: MESVVVGEPGMSEGRRGLGRGLSALLGEVDAAPAQAPGEQLGGSREAPIEILQRNPDQPRRTFREEDLEDLSNSIREKGVLQPILVRPSPDTAGEYQIVAGERAWRAAQRAGLKTVPIMVRELDDLAVLEIGIIENVQRADLNVLEEALSYKVLMEKFERTQENIAQTIGKSXSHVANXMRLLXLPDEVQSYLVSGELTAXHARAIAAAADPVALAKQIIEGGLSVRETEALARKAPNLSAGKSKGGRPPRVKDTDTQALESDLSSVLGLDVSIDHRGSTGTLTITYATLEQLDDLCNRLTRGI

Variants of: B1
Assay: one-hybrid fitness for binding parS DNA (scaled: cognate 1, non-cognate 0); higher = stronger binding
Details: with parS DNA site
Method in brief: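 In E. coli USO, a HIS3 reporter with its site placed 19 bp from the promoter was used to select Caulobacter ParB variants randomised at four specificity codons. Growth lasted 48 hours at 37°C on histidine-free M9 containing 0.1 mM IPTG and 5 mM 3-AT. Fitness was taken as the log change in variant-to-wild-type read ratio from Illumina sequencing of pre- and post-selection plasmids, rescaled between the non-cognate and cognate sites.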

| Variant | one-hybrid fitness for binding parS DNA |
| --- | --- |
| ILMP | 0.236 |
| QQLE | ≤ 0.2 |
| DSLI | ≤ 0.2 |
| NGTM | ≤ 0.2 |
| YMGS | ≤ 0.2 |
| HHSR | ≤ 0.2 |
| HAND | ≤ 0.2 |
| KAWF | ≤ 0.2 |
| AANM | ≤ 0.2 |
| NLRQ | ≤ 0.2 |
| QDVN | ≤ 0.2 |
| SCTC | ≤ 0.2 |
| QDTC | ≤ 0.2 |
| TELS | ≤ 0.2 |
| GAGC | ≤ 0.2 |
| ENSS | ≤ 0.2 |
| WQGT | ≤ 0.2 |
| TRDY | ≤ 0.2 |
| QHYP | ≤ 0.2 |
| DIGI | ≤ 0.2 |
| QMKR | ≤ 0.2 |
| RPIY | ≤ 0.2 |
| DSQC | ≤ 0.2 |
| NKPS | ≤ 0.2 |

| Variant | one-hybrid fitness for binding parS DNA |
| --- | --- |
| QMGY | ≤ 0.2 |
| PIAT | ≤ 0.2 |
| RHET | 0.734 |
| GCNP | ≤ 0.2 |
| YAQR | ≤ 0.2 |
| WYCS | ≤ 0.2 |
| ELTG | ≤ 0.2 |
| TQWK | ≤ 0.2 |
| ADHV | ≤ 0.2 |
| PREL | ≤ 0.2 |
| RYYL | ≤ 0.2 |
| CYWC | ≤ 0.2 |
| CATS | ≤ 0.2 |
| TMPF | ≤ 0.2 |
| RKKK | ≤ 0.2 |
| PQNE | ≤ 0.2 |
| HRLN | ≤ 0.2 |
| KNLG | ≤ 0.2 |
| QGKQ | ≤ 0.2 |
| PYNY | ≤ 0.2 |
| QQFG | 0.335 |
| FKTL | ≤ 0.2 |
| QGKV | ≤ 0.2 |
| PAWT | ≤ 0.2 |

| Variant | one-hybrid fitness for binding parS DNA |
| --- | --- |
| MDTT | ≤ 0.2 |
| RRIS | 0.753 |
| EYWG | ≤ 0.2 |
| YARS | ≤ 0.2 |
| NKKM | ≤ 0.2 |
| RLNC | 0.94 |
| NIPG | ≤ 0.2 |
| KTFC | ≤ 0.2 |
| WYQT | ≤ 0.2 |
| LTDL | ≤ 0.2 |
| QHKM | ≤ 0.2 |
| THSV | ≤ 0.2 |
| VCCW | ≤ 0.2 |
| MYNT | ≤ 0.2 |
| RRVA | 0.78 |
| TECA | ≤ 0.2 |
| MWQG | ≤ 0.2 |
| QVQA | ≤ 0.2 |
| PPIC | ≤ 0.2 |
| PEQL | ≤ 0.2 |
| SKSP | ≤ 0.2 |
| HWRC | ≤ 0.2 |
| AYEW | ≤ 0.2 |
| VWKC | ≤ 0.2 |

| Variant | one-hybrid fitness for binding parS DNA |
| --- | --- |
| STPC | ≤ 0.2 |
| SLTA | ≤ 0.2 |
| MYHG | ≤ 0.2 |
| GLMS | ≤ 0.2 |
| QHNT | ≤ 0.2 |
| SGPS | ≤ 0.2 |
| MCTG | ≤ 0.2 |
| WFLL | ≤ 0.2 |
| HLLT | ≤ 0.2 |
| RCEI | ≤ 0.2 |
| QFVG | ≤ 0.2 |
| QIKF | ≤ 0.2 |
| SYMT | ≤ 0.2 |
| RMKI | ≤ 0.2 |
| WNMS | ≤ 0.2 |
| IHCS | ≤ 0.2 |
| FCAT | ≤ 0.2 |
| HKHF | ≤ 0.2 |
| RPLV | ≤ 0.2 |
| WVGG | ≤ 0.2 |
| QTQV | ≤ 0.2 |
| QTVD | ≤ 0.2 |
| HYYD | ≤ 0.2 |
| GKHS | ≤ 0.2 |

| Variant | one-hybrid fitness for binding parS DNA |
| --- | --- |
| MLQN | ≤ 0.2 |
| EAKG | ≤ 0.2 |
| MWDF | ≤ 0.2 |
| VVDA | ≤ 0.2 |
| GREL | ≤ 0.2 |
| WEPR | ≤ 0.2 |
| LSLK | ≤ 0.2 |
| YRDA | ≤ 0.2 |
| HPTV | ≤ 0.2 |
| QWWS | ≤ 0.2 |
| KYRL | ≤ 0.2 |
| HNQS | ≤ 0.2 |
| YIFC | ≤ 0.2 |
| NRSM | ≤ 0.2 |
| RKIM | 0.244 |
| VHAS | ≤ 0.2 |
| SFGI | ≤ 0.2 |
| TTSE | ≤ 0.2 |
| KQDV | ≤ 0.2 |
| SMMS | ≤ 0.2 |
| MNVA | ≤ 0.2 |
| AVSF | ≤ 0.2 |
| PMWS | 0.221 |
| VLGC | ≤ 0.2 |

| Variant | one-hybrid fitness for binding parS DNA |
| --- | --- |
| IHAG | ≤ 0.2 |
| RPCC | ≤ 0.2 |
| SCKN | ≤ 0.2 |
| HKPC | ≤ 0.2 |
| IAPS | ≤ 0.2 |
| FPAG | ≤ 0.2 |
| GCAC | ≤ 0.2 |
| ANSK | ≤ 0.2 |
| ACDV | ≤ 0.2 |
| RGKG | 0.896 |
| SGMN | ≤ 0.2 |
| YSGS | ≤ 0.2 |
| LLAF | ≤ 0.2 |
| LGMR | ≤ 0.2 |
| MRFL | ≤ 0.2 |
| PGNG | ≤ 0.2 |
| MAKG | ≤ 0.2 |
| NDGR | ≤ 0.2 |
| IVNM | ≤ 0.2 |
| KMDG | ≤ 0.2 |
| PTFL | ≤ 0.2 |
| QAYC | ≤ 0.2 |
| EAPF | ≤ 0.2 |
| MWLT | ≤ 0.2 |

| Variant | one-hybrid fitness for binding parS DNA |
| --- | --- |
| ETER | ≤ 0.2 |
| TTYT | ≤ 0.2 |
| TKNL | ≤ 0.2 |
| SVRF | ≤ 0.2 |
| FMLL | ≤ 0.2 |
| LGLA | ≤ 0.2 |
| QQKV | ≤ 0.2 |
| AILN | ≤ 0.2 |
| FHAP | ≤ 0.2 |
| WKPV | ≤ 0.2 |
| NNAG | ≤ 0.2 |
| TTTM | ≤ 0.2 |
| CNDT | ≤ 0.2 |
| DCAC | ≤ 0.2 |
| SAVC | ≤ 0.2 |
| RIFS | 0.995 |
| AMDN | ≤ 0.2 |
| PWLE | ≤ 0.2 |
| WYYR | ≤ 0.2 |
| QCCT | 0.282 |
| ITTY | ≤ 0.2 |
| MHAR | ≤ 0.2 |
| RWND | ≤ 0.2 |
| CHLH | ≤ 0.2 |

| Variant | one-hybrid fitness for binding parS DNA |
| --- | --- |
| VLGP | ≤ 0.2 |
| VKQT | ≤ 0.2 |
| TCWT | ≤ 0.2 |
| QDPP | ≤ 0.2 |
| NEAT | ≤ 0.2 |
| TINF | ≤ 0.2 |
| LHYF | ≤ 0.2 |
| PYSY | ≤ 0.2 |
| KPMC | ≤ 0.2 |
| CCTC | ≤ 0.2 |
| QPQN | ≤ 0.2 |
| YPSV | ≤ 0.2 |
| RKLG | 0.964 |
| SVPG | ≤ 0.2 |
| EYES | ≤ 0.2 |
| NMTD | ≤ 0.2 |
| LLSV | ≤ 0.2 |
| RHMN | 0.389 |
| TTWH | ≤ 0.2 |
| DKTE | ≤ 0.2 |
| MMYG | ≤ 0.2 |
| RGQI | ≤ 0.2 |
| CSKF | ≤ 0.2 |
| CNDW | ≤ 0.2 |

| Variant | one-hybrid fitness for binding parS DNA |
| --- | --- |
| KLQR | ≤ 0.2 |
| MQMR | ≤ 0.2 |
| EIAS | ≤ 0.2 |
| KMIT | ≤ 0.2 |
| RHDV | ≤ 0.2 |
| NNQG | ≤ 0.2 |
| DGWM | ≤ 0.2 |
| FFTN | ≤ 0.2 |
| SNLV | ≤ 0.2 |
| ITPS | ≤ 0.2 |
| ISTQ | ≤ 0.2 |
| QHPR | ≤ 0.2 |
| SSVL | ≤ 0.2 |
| SSMS | ≤ 0.2 |
| RFPC | 0.424 |
| DQAI | ≤ 0.2 |
| NIQT | ≤ 0.2 |
| QGSS | ≤ 0.2 |
| RKFD | ≤ 0.2 |
| RIIK | ≤ 0.2 |
| EVQI | ≤ 0.2 |
| GPYS | ≤ 0.2 |
| KAGW | ≤ 0.2 |
| CMYM | ≤ 0.2 |

| Variant | one-hybrid fitness for binding parS DNA |
| --- | --- |
| VEWS | ≤ 0.2 |
| FVLF | ≤ 0.2 |
| TRLT | ≤ 0.2 |
| WHQG | ≤ 0.2 |
| DHPT | ≤ 0.2 |
| QCCR | ≤ 0.2 |
| QQAH | ≤ 0.2 |
| RWCW | ≤ 0.2 |
| IKSE | ≤ 0.2 |
| IKPI | ≤ 0.2 |
| RHMM | 0.293 |
| PHPP | ≤ 0.2 |
| VDMI | ≤ 0.2 |
| SVVY | ≤ 0.2 |
| LRFG | ≤ 0.2 |
| MQDN | ≤ 0.2 |
| TRHL | ≤ 0.2 |
| MSPD | ≤ 0.2 |
| PRIY | ≤ 0.2 |
| GEHT | ≤ 0.2 |
| RLGR | ≤ 0.2 |
| FSNF | ≤ 0.2 |
| YTGT | ≤ 0.2 |
| YKDM | ≤ 0.2 |

| Variant | one-hybrid fitness for binding parS DNA |
| --- | --- |
| SAQM | ≤ 0.2 |
| GSYH | ≤ 0.2 |
| HPLE | ≤ 0.2 |
| HSHT | ≤ 0.2 |
| QSIT | ≤ 0.2 |
| TTME | ≤ 0.2 |
| EYPS | ≤ 0.2 |
| MPYC | ≤ 0.2 |
| GKLT | ≤ 0.2 |
| TAIH | ≤ 0.2 |
| RIQP | ≤ 0.2 |
| CNQL | ≤ 0.2 |
| PARY | ≤ 0.2 |
| VQLK | ≤ 0.2 |
| ACQA | ≤ 0.2 |
| QIAC | ≤ 0.2 |
| WCVN | ≤ 0.2 |
| ASYD | ≤ 0.2 |
| CTIC | ≤ 0.2 |
| STEG | ≤ 0.2 |
| FGHT | ≤ 0.2 |
| MVTT | ≤ 0.2 |
| PHGL | ≤ 0.2 |
| DVMF | ≤ 0.2 |

| Variant | one-hybrid fitness for binding parS DNA |
| --- | --- |
| MTKG | ≤ 0.2 |
| YLLF | ≤ 0.2 |
| QSHF | ≤ 0.2 |
| NGAS | ≤ 0.2 |
| QHQH | ≤ 0.2 |
| SESC | ≤ 0.2 |
| SKKC | ≤ 0.2 |
| HAKW | ≤ 0.2 |
| FKPS | ≤ 0.2 |
| YMTC | ≤ 0.2 |
| CKAS | ≤ 0.2 |
| CQES | ≤ 0.2 |
| PYSE | ≤ 0.2 |
| LCTW | ≤ 0.2 |
| IHLL | ≤ 0.2 |
| DNES | ≤ 0.2 |
| WMTP | ≤ 0.2 |
| ALHC | ≤ 0.2 |
| LNER | ≤ 0.2 |
| REAT | ≤ 0.2 |
| RQVK | ≤ 0.2 |
| IGTM | ≤ 0.2 |
| GNMR | ≤ 0.2 |
| YYLC | ≤ 0.2 |

| Variant | one-hybrid fitness for binding parS DNA |
| --- | --- |
| ADCT | ≤ 0.2 |
| ERMS | ≤ 0.2 |
| VKRH | ≤ 0.2 |
| ADIG | ≤ 0.2 |
| AVDA | ≤ 0.2 |
| SASA | ≤ 0.2 |
| METV | ≤ 0.2 |
| DNRA | ≤ 0.2 |
| TRET | ≤ 0.2 |
| LEVS | ≤ 0.2 |
| RNIS | 0.65 |
| SSHY | ≤ 0.2 |
| HHHS | ≤ 0.2 |
| TTQF | ≤ 0.2 |
| TFQE | ≤ 0.2 |
| LCHM | ≤ 0.2 |
| HETY | ≤ 0.2 |
| EEKS | ≤ 0.2 |
